# Measured values as given in PMC10668032.
# The list shows a part of the results. At the low end of the ranking the order means little.
# Target: SIX1 homeodomain (reference allele) (UniProt Q15475)
# Assay: universal protein binding microarray
# Conditions: Universal all-10-mer PBM (8x60K, AMADID 030236), 300 nM GST-tagged protein, Alexa Fluor 488 anti-GST; buffer, salt, pH and temperature not stated; high values mean tight binding; most listed sequences are background and not binding sites; double strand, one strand shown
row,Sequence,binding signal [E-score]
1,GCGGCGGA,0.0131
2,AGTTACTG,-0.111
3,ATGCACGG,-0.163
4,TTGAGAAA,-0.0364
5,CACGCGGA,-0.0544
6,CGCCTTCA,-0.199
7,CACTCGTA,-0.0847
8,CATCTGCG,0.00218
9,AAGACTCT,-0.206
10,TATGGCCA,0.0383
11,CCAGCGGA,0.0384
12,AGACAGTC,-0.165
13,CACAACGA,-0.0911
14,ACCCAAGC,0.0606
15,CACCCAAC,-0.152
16,CCCAATCC,0.0899
17,CAGCTGGC,-0.283
18,ATTAAACC,0.174
19,CTACAGTC,-0.262
20,ACTAGCCA,-0.0336
21,CCATGGAG,0.0552
22,ATTAGGCG,-0.0513
23,ATTTAGCA,-0.202
24,AGTTAACT,-0.281
25,ACGGACCT,0.00716

row,Sequence,binding signal [E-score]
1,CCAGTGAA,-0.154
2,CCTTTGTA,-0.079
3,ACGTGAAT,-0.132
4,GCGCTCAC,-0.0938
5,GCTTCGAA,-0.134
6,TCATTTCA,-0.0112
7,AGCACAAC,-0.0359
8,CAATCTAG,0.14
9,ATAACGCG,0.00783
10,AGCATGCA,-0.0457
11,CAATTCAG,-0.0584
12,ATGGTCCC,-0.209
13,CAATCCCA,0.177
14,CTGATGAA,-0.241
15,AGGCTTAA,-0.125
16,GGTCGAAA,-0.16
17,CCGATAGG,0.348
18,CCCAGGGA,-0.0532
19,CAGTATGA,0.151
20,AAGCACTA,0.0431
21,CAAGCCTC,-0.335
22,CCATCTAG,0.11
23,ACTTGTGC,-0.215
24,AGCGTCAG,-0.138
25,CTTGACGA,-0.152

row,Sequence,binding signal [E-score]
1,ACAAAAAG,-0.0645
2,AAAATTTT,-0.259
3,GGACATAA,-0.1
4,TCCAGCGA,-0.0877
5,GGCCCGGA,-0.0237
6,AAGTTCAT,-0.239
7,CACGCGTG,-0.00775
8,GCTAGGCC,-0.0661
9,CCATCCCC,0.203
10,GCAGTCGA,-0.143
11,ACTAAAAT,-0.251
12,AGTCAGTC,-0.156
13,ATAAAACA,-0.0822
14,GAATTAGA,-0.175
15,GGCTAACC,-0.176
16,ACGCGTAG,-0.0632
17,AGGACCAA,-0.259
18,TACGATCA,0.199
19,ACTGCGAC,-0.28
20,ACTTCGGA,-0.0775
21,AGATTGGC,-0.116
22,AGTCTAAG,-0.0949
23,ATTGTGAA,-0.0689
24,CCCTGGGA,0.00666
25,GCGTTTCA,-0.234

row,Sequence,binding signal [E-score]
1,GAATCCAC,-0.04
2,ATGCGAGA,-0.0296
3,AACTTACT,-0.241
4,CTTCTTAA,-0.0167
5,CCCCTTTC,0.00262
6,ACTGCATA,0.0624
7,TAACTCTA,-0.0912
8,CGATAATC,0.128
9,TCCAACAA,-0.107
10,AACGTTTG,-0.22
11,CTACAAAC,-0.0882
12,CAATTCGG,-0.177
13,ATACTCGC,0.34
14,GGATTGTA,0.162
15,TCTCTACA,0.0832
16,AAAAGTCC,-0.231
17,AAAACGTT,-0.236
18,CTAGACGC,0.126
19,GCTTAGAA,-0.0868
20,CATTACAC,0.122
21,ACGTTCGA,-0.19
22,CGCAGATA,0.29
23,AGTAGAGC,-0.00523
24,ACTTCACA,0.0242
25,ATCCCGGC,0.173

row,Sequence,binding signal [E-score]
1,AGTGATAC,0.489
2,ACACAACC,-0.215
3,CAGAGCTA,-0.127
4,GCACAGCA,-0.15
5,ACGGTACT,0.082
6,CAGTTAGG,0.00951
7,AGGTTGTG,-0.256
8,ACTTTGTG,-0.122
9,CTAAAAGC,-0.163
10,CTTTTCAC,-0.112
11,GGTATACA,0.384
12,CCAACTTC,-0.0314
13,GGGTCGGA,0.155
14,GTACTTGA,0.0189
15,CACCTTGC,0.0478
16,GAGTCTCC,-0.182
17,AGCATATC,0.408
18,ACTAAAGA,-0.137
19,GGAGATGA,0.116
20,AAGTTCCG,-0.223
21,AGGTAAAC,-0.0937
22,CAACTAAG,-0.17
23,GCTTTTAC,-0.144
24,CCTCCAGC,-0.00404
25,AAGGTATC,0.472

row,Sequence,binding signal [E-score]
1,AGCTCGAT,0.227
2,ATATTGGG,0.219
3,AGCGCAAC,-0.121
4,AACTGCGA,-0.204
5,AAAAGGAT,0.163
6,ATATGGTC,0.277
7,GCCACGCA,-0.0518
8,CAGACTAA,-0.193
9,CGATACGC,0.434
10,GGGCGCCC,0.0141
11,CCTTTGCG,0.0492
12,CCTTCGAA,-0.234
13,CACAGTAA,-0.103
14,AGAACCAG,0.0696
15,AAACGGAT,0.364
16,ACTCGTCT,0.0382
17,GGCGTTTA,-0.096
18,AACCTGAC,-0.182
19,TAAAGACA,-0.211
20,AGAGCGGC,-0.194
21,ATGGTAAC,0.14
22,ACGCCCAG,-0.0061
23,ATTTCCCA,-0.117
24,CGTTTAAC,-0.216
25,CCGCTAAA,-0.24

row,Sequence,binding signal [E-score]
1,TCGATCGA,-0.076
2,ACCTCGAA,-0.122
3,CTGAACCC,0.0238
4,CGTCCTTA,-0.105
5,ATTACCGC,0.0243
6,GTGTAATA,0.267
7,ATACGATC,0.388
8,GCATGCCC,-0.169
9,CTGCCAGC,-0.377
10,CTCATCCC,0.0695
11,GACCTGTA,-0.0364
12,ACGAAAAT,-0.134
13,ACTACCCC,0.0855
14,ACAAGAGG,-0.0142
15,ACCCACCG,-0.102
16,CGTTACGA,-0.0725
17,ATCCGTTC,0.324
18,TCCGACAA,0.0446
19,TAGCGCCA,-0.348
20,AGTCTCAG,-0.125
21,ATTAAAAT,-0.135
22,CCCCTCAG,0.123
23,ATCACGAA,0.172
24,TGACCGAA,-0.203
25,CAGGGAAC,-0.0798

row,Sequence,binding signal [E-score]
1,ATACCACC,0.403
2,TATCAGCA,0.327
3,ACCCGGCA,-0.108
4,GACTGGGC,-0.251
5,GCATCACC,-0.0938
6,CCGTGACG,0.0287
7,CTACTAGC,0.0799
8,ATAAAGTC,-0.174
9,ATAGGCTG,-0.0133
10,GGTATAAC,0.301
11,GCTTAAGA,-0.0326
12,CTACATCC,-0.0347
13,AACTCAGG,-0.00139
14,ATACCGGA,0.381
15,ACCTCTGA,-0.0226
16,CGGGTACA,0.107
17,CGCTGGCC,-0.217
18,AGGTTGCA,0.0213
19,CGGGTCAG,-0.0169
20,AAAAATAC,0.124
21,CTACGCCC,0.0346
22,GTCGCAGA,-0.0781
23,CCCCAAGA,0.0705
24,CAGAGGGA,0.0779
25,ACTAACGC,-0.115

row,Sequence,binding signal [E-score]
1,GATAACCA,0.213
2,GTAACCTA,0.0595
3,GTCCGTAA,-0.0864
4,GGAATGCC,-0.125
5,AGAGTGCA,-0.24
6,AATGCCCG,-0.0207
7,AAGATAAT,0.11
8,GCGCCGGA,0.11
9,AATTAGAT,0.114
10,ATTCTCCC,0.114
11,CCTGCACA,-0.183
12,AACAATTA,-0.175
13,CTCCATTA,-0.0529
14,CCCCGGGG,0.0987
15,GATCTGTA,0.25
16,TAGGGTCA,-0.0903
17,ACGGGTTG,0.00325
18,GGCTCTTA,-0.0886
19,ACTCTTAC,-0.143
